We go through five molecules from article PMC4342240.

Chains of the proteins cited; added tags and fusions are not shown. Lines headed by an entry give the natural chain unless they say otherwise; changes in a name come on top. A line that says so, or that is headed by a name, gives the form on record, which may keep a tag or linker. Residues count along the entry.
UniProt P22336: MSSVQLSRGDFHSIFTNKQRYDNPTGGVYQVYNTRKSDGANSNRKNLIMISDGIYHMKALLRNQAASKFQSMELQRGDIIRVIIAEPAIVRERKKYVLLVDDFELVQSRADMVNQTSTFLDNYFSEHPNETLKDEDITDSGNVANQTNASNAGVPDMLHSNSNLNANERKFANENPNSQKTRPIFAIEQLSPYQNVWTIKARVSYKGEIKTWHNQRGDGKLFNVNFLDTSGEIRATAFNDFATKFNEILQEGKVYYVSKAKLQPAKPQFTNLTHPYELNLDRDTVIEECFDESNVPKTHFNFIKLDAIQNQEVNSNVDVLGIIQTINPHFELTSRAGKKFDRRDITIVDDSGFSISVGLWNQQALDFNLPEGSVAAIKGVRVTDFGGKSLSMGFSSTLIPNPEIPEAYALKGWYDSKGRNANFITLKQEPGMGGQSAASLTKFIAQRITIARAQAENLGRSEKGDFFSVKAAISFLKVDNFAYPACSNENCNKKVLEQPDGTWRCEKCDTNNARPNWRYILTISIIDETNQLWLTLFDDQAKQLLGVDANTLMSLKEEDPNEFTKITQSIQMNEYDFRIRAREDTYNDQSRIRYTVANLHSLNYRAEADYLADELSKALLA
BD-Rfa1-FLAB (lexA DNA binding domain fused to Rfa1 truncated at tryptophan 413; plasmid pGP1): residues 1-412 of P22336
BD-Rfa1-t11 (plasmid pENM21) (P22336, form named): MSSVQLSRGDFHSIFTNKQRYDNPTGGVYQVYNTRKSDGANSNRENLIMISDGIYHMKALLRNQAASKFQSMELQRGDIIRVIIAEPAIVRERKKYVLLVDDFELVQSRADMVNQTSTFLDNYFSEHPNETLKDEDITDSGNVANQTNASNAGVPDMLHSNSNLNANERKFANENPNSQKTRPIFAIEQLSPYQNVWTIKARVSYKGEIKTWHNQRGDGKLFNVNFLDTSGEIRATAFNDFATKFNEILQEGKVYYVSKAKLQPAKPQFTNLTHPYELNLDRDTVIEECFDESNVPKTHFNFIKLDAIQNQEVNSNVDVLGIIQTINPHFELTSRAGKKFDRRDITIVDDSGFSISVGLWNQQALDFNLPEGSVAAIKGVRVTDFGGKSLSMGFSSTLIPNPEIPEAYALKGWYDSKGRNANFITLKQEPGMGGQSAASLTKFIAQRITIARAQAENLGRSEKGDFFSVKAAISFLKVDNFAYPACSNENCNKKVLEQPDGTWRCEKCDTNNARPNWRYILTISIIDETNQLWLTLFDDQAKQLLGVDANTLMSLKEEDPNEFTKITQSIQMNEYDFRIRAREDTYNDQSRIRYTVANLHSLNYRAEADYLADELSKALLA
UniProt P26755: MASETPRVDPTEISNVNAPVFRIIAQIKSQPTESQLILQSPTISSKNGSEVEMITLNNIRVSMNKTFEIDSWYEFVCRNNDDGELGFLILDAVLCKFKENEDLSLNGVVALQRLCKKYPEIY
UniProt P26754: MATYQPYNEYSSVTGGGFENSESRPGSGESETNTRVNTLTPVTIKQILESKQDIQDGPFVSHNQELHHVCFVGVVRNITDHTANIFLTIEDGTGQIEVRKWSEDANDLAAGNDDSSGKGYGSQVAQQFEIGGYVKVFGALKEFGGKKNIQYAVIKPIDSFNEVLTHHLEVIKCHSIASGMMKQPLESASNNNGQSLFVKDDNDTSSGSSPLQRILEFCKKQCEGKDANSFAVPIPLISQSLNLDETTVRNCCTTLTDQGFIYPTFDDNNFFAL

Assay [1] concerns the target BD-Rfa1-FLAB (lexA DNA binding domain fused to Rfa1 truncated at tryptophan 413; plasmid pGP1) (S. cerevisiae) (UniProt P22336). Put plainly: two-hybrid; directed test by replica plating: EGY48 (6xOlexA-LEU2) with lexA bait, B42 prey and pSH18-34 (8xOlexA-lacZ); growth on SG-HTUL and/or blue colour on SG-HTU+X-gal; also done in EGY48 strains with rfa2-Dx or rfa2-Ax in place of RFA2 (Fig. 2E).

Assay [2] deals with BD-Rfa1, full-length (lexA DNA binding domain fused to Rfa1; plasmids pSJH101 and pPM07) (S. cerevisiae) (UniProt P22336). Described as above.
In assay [3] the target is BD-Rfa1-FLAB (lexA DNA binding domain fused to Rfa1 truncated at tryptophan 413; plasmid pGP1) (S. cerevisiae) (UniProt P22336). The description is as above. The source holds these as a separate data set.
For assay [4], the target named is BD-Rfa1-t11 (plasmid pENM21) (S. cerevisiae) (UniProt P22336). The assay can be described thus: two-hybrid; liquid beta-galactosidase assay of the EGY48 cells of Fig. 2C (pSJH101 or pENM21 bait, pGP2 prey, pSH18-34); four independent transformants in one experiment; normalised to BD-Rfa1 (pPM07) with AD-Rad24-ΔN.
Assay [5] addresses BD-Rfa1, full-length (lexA DNA binding domain fused to Rfa1; plasmids pSJH101 and pPM07) (S. cerevisiae) (UniProt P22336). The assay can be described thus: two-hybrid; liquid beta-galactosidase (ONPG) assay in EGY188 with pSH18-34; pGAL-lexA bait plasmids and B42 prey induced with 2% galactose for 5 hr at 30°C; Miller units normalised to BD-Rfa1 (pPM07) with AD-Rad24-ΔN (pGP2).
Assay [6] has as its target BD-Rfa1, full-length (plasmid pENM17) (S. cerevisiae) (UniProt P22336). Put plainly: two-hybrid; directed test by replica plating: EGY48 (6xOlexA-LEU2) with lexA bait, B42 prey and pSH18-34 (8xOlexA-lacZ); growth on SG-HTUL and/or blue colour on SG-HTU+X-gal; also done in EGY48 strains with rfa2-Dx or rfa2-Ax in place of RFA2 (Fig. 2E).
The target of assay [7] is BD-Rfa1-t11 (plasmid pENM21) (S. cerevisiae) (UniProt P22336). The description is as above.
The target of assay [8] is BD-Rfa1-FLAB (lexA DNA binding domain fused to Rfa1 truncated at tryptophan 413; plasmid pGP1) (S. cerevisiae) (UniProt P22336). Put plainly: two-hybrid; library screen: DupLEX-A system, bait BD-Rfa1-FLAB (pGP1) in EGY48 (6xOlexA-LEU2) with pSH18-34 (8xOlexA-lacZ), S. cerevisiae genomic DNA prey library in pJG4-5; selection by growth on SG-His-Trp-Ura-Leu at 30°C, retest on SD-HTUL and SG-HTUL; prey inserts sequenced.

No constants are given. Whether binding was seen depends on the method and setting. Some results given as binding are weak or reduced against the parent protein; the word gives no strength. For some of these results: Tags and fused reporters may be left off the sequences shown.

In the case of “AD-Rfa3 (B42 activation domain fused to Rfa3; plasmid pENM12) (from UniProt P26755 1-122)”, the binding entry in assay [1] is “no binding”.
Turning to “AD-Rfa2 (B42 activation domain fused to Rfa2; plasmid pENM11) (from UniProt P26754 1-273)”, the binding result in assay [1] was “no binding”.

B1: Rad24-ΔC2 (Rad24 C-terminal peptide 461-659 with aa 528-594 deleted) (domain or fragment, UniProt P32641)
chain: EDWLNVSLYKYNAVHSFRNITLEFGYYAPLIRKCQSYKKKYILYYLKNLPSGSSGPKQTMDKFSDIMLEDEETSFNDDPIVDSDSDNSNNIGNETFGRSDEDESLCEILSQRQPRKAPVISESLSDSDLEIL
For B1, the binding entry in assay [2] and in assay [3] was “binds” each time.

B2: AD-Rad24-ΔN (Rad24 C-terminal peptide, aa 461-659; plasmid pGP2) (domain or fragment, UniProt P32641 461-659)
chain: EDWLNVSLYKYNAVHSFRNITLEFGYYAPLIRKCQSYKKKYILYYLKNLPSGSSGPKQTMDKFSDIMKVENGIDVVDRIGGPIEALSVEDGLAPLMDNDSNNCDHLEDQKKERDRRLRMLIDQYERNVMMANDDLEDEETSFNDDPIVDSDSDNSNNIGNETFGRSDEDESLCEILSQRQPRKAPVISESLSDSDLEIL
As for B2, the binding entry in assay [4], in assay [5], in assay [2], in assay [6], in assay [3] and in assay [7] was “binds” each time. The binding result in assay [8] is reported as “binds”.

B3: Rad24-ΔC1 (Rad24 C-terminal peptide 461-659 with aa 461-527 deleted) (domain or fragment, UniProt P32641 528-659)
chain: KVENGIDVVDRIGGPIEALSVEDGLAPLMDNDSNNCDHLEDQKKERDRRLRMLIDQYERNVMMANDDLEDEETSFNDDPIVDSDSDNSNNIGNETFGRSDEDESLCEILSQRQPRKAPVISESLSDSDLEIL
For B3, the binding entry in assay [2] and in assay [3] was “binds” each time.
